# In PubChem BioAssay AID1476 (National Center for Advancing Translational Sciences (NCATS), 2009):
# Screen size: about 200,000 compounds; about 4,500 (2.2%) were called active. The inconclusive results got no clear call from the source; some entries with a clear call stand among them for comparison. The call rests on the fitted dose curve; in most records, active means well fitted inhibition curve with a large enough effect; inconclusive means small, poorly fitted or top-dose-only effect, or effect the other way; inactive means flat fitted curve, though single readings scatter. Potencies of inconclusive entries are doubtful fits and often do not repeat.
# Biological target: Cruzipain (Trypanosoma cruzi) (UniProt P25779)
# Chain of UniProt P25779 (P25779 whole entry, looked up): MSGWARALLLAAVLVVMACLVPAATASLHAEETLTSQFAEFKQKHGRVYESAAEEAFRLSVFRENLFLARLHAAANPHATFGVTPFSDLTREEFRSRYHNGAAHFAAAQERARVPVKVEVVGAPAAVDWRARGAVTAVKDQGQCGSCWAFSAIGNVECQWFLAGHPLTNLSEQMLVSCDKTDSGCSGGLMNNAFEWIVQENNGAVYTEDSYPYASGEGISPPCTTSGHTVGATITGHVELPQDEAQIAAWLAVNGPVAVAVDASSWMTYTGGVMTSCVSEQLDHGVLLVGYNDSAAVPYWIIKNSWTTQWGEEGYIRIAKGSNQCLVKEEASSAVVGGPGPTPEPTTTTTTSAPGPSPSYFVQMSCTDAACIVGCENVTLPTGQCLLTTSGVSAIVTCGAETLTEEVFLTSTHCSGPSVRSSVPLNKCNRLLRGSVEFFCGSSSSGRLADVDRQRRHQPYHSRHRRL
# Assay: qHTS Assay for Promiscuous and Specific Inhibitors of Cruzain (without detergent); further: nearly all actives have a fitted effect of over 40% in size;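 on max response, negative = inhibition: plate controls were enzyme without inhibitor for no effect and buffer without enzyme for full effect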
# Settings: purified cruzain, Z-FR-AMC fluorescence, no detergent
# How it was run: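 Purified cruzain at 1.5 nM, pre-incubated 15 min with compound at room temperature in 100 mM sodium acetate pH 5.5, 5 mM DTT, 0.00005% Triton X-100. Reaction started with 2 uM Z-FR-AMC; AMC fluorescence increase over 60 s gives rate.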
# Potency means the concentration at half of the fitted maximal effect; tags describe the fitted curve by direction and shape.
SMILES,"max response, negative = inhibition",Potency
CCc1ccc(-n2c(=O)c3c4c(sc3n(CC(=O)NC(C)CC)c2=O)CCCC4)cc1 (configuration not stated),inactive: -12.8%,
COc1ccc(CN2C(=O)Cc3c2nc(N)c2c(N)nc(N4CCCCC4)c(C#N)c32)cc1,,active: 6.31 µM
CCN(CC)S(=O)(=O)c1ccc(C(=O)NCCc2cc3c(OC)ccc(OC)c3[nH]c2=O)cc1,,"inconclusive: 31.6 µM [activator, single point]"
CCn1c(=O)cc(SCC(=O)NCCc2ccc(OC)cc2OC)c2ccccc21,inactive: 6.44%,
COc1cccc(NC(=S)N(CCc2c(C)[nH]c3ccc(C)cc23)Cc2cccs2)c1,,"inconclusive: 39.8 µM [inhibitor, single point]"
CN(c1ccccc1)c1ccc(/C=c2\s/c(=C(/C#N)C(=O)C(C)(C)C)n(Cc3ccco3)c2=O)cc1,,active: 3.16 µM
O=[N+]([O-])c1ccc(C2Nc3cccc4cccc(c34)N2)cc1,,"inconclusive: 31.6 µM [inhibitor, single point]"
C[C@@]12CC(=O)NC1N(C(=O)c1cccc(C(F)(F)F)c1)C(c1ccccc1OC(=O)c1cccc(C(F)(F)F)c1)C2 (some centres not stated),,"inconclusive: 25.1 µM [activator, partial curve]"
O=C(Nc1ccc(SC(F)F)cc1)c1cccc2nc3ccccc3nc12,,"inconclusive: 25.1 µM [inhibitor, single point]"
O=c1c2[nH]c3ccccc3c2nc(SCc2cccc(F)c2)n1-c1ccccc1,,"inconclusive: 3.98 µM [inhibitor, full curve]"
COc1cc2ccccc2cc1C(=O)Nc1ccccc1N1CCN(S(C)(=O)=O)CC1,,active: 25.1 µM
Oc1cccc(C=NCc2ccccc2)c1O,inactive: -0.325%,
Nc1cc(-c2ccccc2)ccc1O,,"inconclusive: 31.6 µM [inhibitor, single point]"
CCCCCC(O)c1cccc(OCc2ccc3ccccc3n2)c1 (configuration not stated),,"inconclusive: 39.8 µM [activator, single point]"
COc1ccc(CN(CCC(c2ccccc2)C2CCOC(C)(C)C2)C(C)=O)cc1 (configuration not stated),,"inconclusive: 25.1 µM [activator, partial curve]"
CCOC(=O)C1(Cc2ccccc2)NC(c2ccccc2F)C2C(=O)N(CC)C(=O)C21 (configuration not stated),,"inconclusive: 31.6 µM [activator, single point]"
COc1cccc(-c2coc3c(C)c4oc(=O)c(CCC(=O)O)c(C)c4cc23)c1,,"inconclusive: 39.8 µM [activator, single point]"
CCOc1cc(C(=O)Nc2ccc(-c3nc4ncccc4o3)cc2C)cc(OCC)c1OCC,inactive: -0.532%,
Cc1cccc(NC(=O)CCn2nc(-c3ccccc3)c3ccccc3c2=O)c1,,"inconclusive: 39.8 µM [activator, single point]"
CC1=C(C(=O)Nc2ccccc2C)C(c2cccnc2)n2nc(SCc3ccccc3F)nc2N1 (configuration not stated),inactive: -2.57%,
CCOc1cc(/C=N/NS(=O)(=O)c2ccccc2)ccc1OS(=O)(=O)c1ccc(C)cc1,,"inconclusive: 39.8 µM [inhibitor, single point]"
O=c1cc(Nc2ccc3c(c2)OCO3)[nH]c(=O)n1-c1ccc(Br)cc1,,"inconclusive: 31.6 µM [inhibitor, single point]"
COc1ccc2cc3cc(C(=O)NCCc4ccc(OC)c(OC)c4)oc3nc2c1,,"inconclusive: 31.6 µM [activator, single point]"

SMILES,"max response, negative = inhibition",Potency
Cc1c(Cl)c(=O)oc2cc(OC(C)C)ccc12,,"inconclusive: 25.1 µM [activator, single point]"
Cc1ccc2nc3c(cc(C(=O)NC4CCCCC4)c(=N)n3C(C)C)c(=O)n2c1,,"inconclusive: 3.16 µM [activator, single point]"
Cc1ccc(-c2nn(-c3ccccc3)c3[nH]c(=O)c(CNCc4ccccc4)cc23)cc1,,"inconclusive: 39.8 µM [inhibitor, single point]"
CCc1nnc(NC(=O)c2ccc(-c3cccc(C(F)(F)F)c3)o2)s1,,active: 12.6 µM
CCC(C)NC(=O)C1CCC(CNS(=O)(=O)c2ccc(Cl)cc2)CC1 (configuration not stated),inactive: -0.0208%,
Cc1cc(C)c(S(=O)(=O)n2cnc(C)c2)c(C)c1,inactive: -1.54%,
Cc1nn(-c2ccccc2)c(Cl)c1/C=C(\CC(=O)O)c1nc2ccccc2s1,,"inconclusive: 31.6 µM [activator, single point]"
O=C(c1ccc(Cl)c(Cl)c1)c1cnc(Nc2ccccc2)s1,,active: 20 µM
NC(=S)N/N=C/c1ccc(C(F)(F)F)cc1,,"inconclusive: 0.501 µM [inhibitor, full curve, poor fit]"
N#CCCN(Cc1cccnc1)S(=O)(=O)c1ccc(S(=O)(=O)N2CCCCCC2)cc1,,"inconclusive: 39.8 µM [activator, single point]"
O=C1C(C2=C(O)c3ccccc3C2=O)=Nc2ccccc21,,"inconclusive: 31.6 µM [inhibitor, single point]"
Cc1ccc(C2CC(=O)C(C=NCCN3CCN(C(=O)Cc4ccccc4)CC3)=C(O)C2)cc1 (configuration not stated),,"inconclusive: 31.6 µM [activator, single point]"
CCCCCN1C(C(=O)c2ccccc2)=C(NC(=O)c2ccccc2Cl)c2ccccc2S1(=O)=O,,active: 10 µM
Cc1cccc(C(=O)NCCCN2CCCC2=O)c1,inactive: -2.37%,
CCOc1cc(C#N)c(NC(=O)CSc2nnnn2-c2ccc(OC)cc2)cc1OCC,,"inconclusive: 25.1 µM [activator, partial curve]"
O=[N+]([O-])c1cc(S(=O)(=O)C(F)(F)F)ccc1Sc1nc2ccccc2s1,,active: 25.1 µM
CCOC(=O)c1cc(-c2ccc(C)cc2)n(CCC(=O)Nc2ccc(OC)c(OC)c2)c1C,,"inconclusive: 31.6 µM [activator, single point]"
CCc1ccccc1NC(=O)C1c2ccccc2Oc2ccccc21,,active: 25.1 µM
O=c1cc(CN2CCN(c3ccccc3F)CC2)c2cc(O)c(-c3ccccc3)cc2o1,,active: 7.94 µM
COc1cnc(-c2ccccc2)nc1Oc1ccc(C(C)(C)C)cc1,,"inconclusive: 39.8 µM [activator, single point]"
Cc1cccc(-c2nc(SCC(=O)Nc3ccc4c(c3)OCO4)c(-c3ccccc3)[nH]2)c1,,"inconclusive: 39.8 µM [inhibitor, single point]"
CCc1ccc(OCC(=O)N(Cc2ccc(OC)cc2)C2CCS(=O)(=O)C2)cc1 (configuration not stated),,"inconclusive: 39.8 µM [activator, single point]"
CN1CCN(CN2C(=O)C3C4C=CC(C3C2=O)C2C3C(=O)N(CN5CCN(C)CC5)C(=O)C3C42)CC1 (configuration not stated),inactive: -3.82%,

SMILES,"max response, negative = inhibition",Potency
O=C(Cn1c(=O)oc2cc(S(=O)(=O)NC3CCCC3)ccc21)Nc1ccc(F)c(F)c1,inactive: 0.383%,
CC1(C)Cc2c(c(N3CCCCC3)[nH]c(=S)c2C#N)CS1,,active: 12.6 µM
CN(Cc1ccccc1)Cc1nc2c(c(=O)n(C)c(=O)n2C)n1Cc1ccc(F)cc1,,"inconclusive: 31.6 µM [activator, single point]"
Cc1ccc(C2=CC(c3ccc(N(C)C)cc3)n3nnnc3N2)cc1 (configuration not stated),,"inconclusive: 31.6 µM [inhibitor, single point]"
CCOc1ccccc1NC(=O)Cn1nnc(C(=O)Nc2ccc(C)c(C)c2)c1N,inactive: 0.467%,
Cc1c(C(=O)N2CCC(C)CC2)c(S(=O)(=O)N2CCN(c3ccc(Cl)cc3)CC2)c(C)n1C,,"inconclusive: 25.1 µM [activator, single point]"
CC(C)Oc1cc(O)c2c(c1)OCC=C2CCC(=O)O,inactive: -5.96%,
CCCCn1c(N)c(N(CCC(C)C)C(=O)CSc2nnc3ccccn23)c(=O)[nH]c1=O,,"inconclusive: 12.6 µM [activator, partial curve]"
O=C(CCN1C(=O)/C(=C/C=C/c2ccccc2)SC1=S)Nc1nc2ccccc2s1,,active: 7.94 µM
Cc1ccc(-c2nc3cc(Cl)ccc3o2)cc1NC(=O)COc1ccc(F)cc1,inactive: -6.43%,
COc1ccc(/C=C/C(=O)NCCn2c(C)cc3ccccc32)cc1OC,,"inconclusive: 39.8 µM [activator, single point]"
COc1cccc(C2CC(=O)Nc3c2c(=O)nc2c(C)cccn32)c1OC (configuration not stated),inactive: 0.441%,
COc1cccc(C(c2sc3nc(C)nn3c2O)N2CCc3ccccc3C2)c1 (configuration not stated),,"inconclusive: 39.8 µM [activator, single point]"
O=C(CSc1nnc(-c2ccccc2)n1-c1ccc(Cl)cc1)NNC(=S)Nc1ccccc1,,"inconclusive: 39.8 µM [activator, single point]"
Fc1ccc(COc2ccc(/C=N/n3cnnc3)cc2)cc1,inactive: 7.17%,
Cc1ccc(C)c(NC(=S)N/N=C2/CCCCc3ccccc32)c1,,"inconclusive: 39.8 µM [inhibitor, single point]"
O=C(COC(=O)CCNS(=O)(=O)c1cccc(C(F)(F)F)c1)NC(=O)NC1CCCCC1,,"inconclusive: 39.8 µM [activator, single point]"
Cc1ccc(Cn2c(=O)n(Cc3ccccc3Cl)c(=O)c3ccccc32)cc1,inactive: 2.4%,
CCCn1cc(S(=O)(=O)c2ccc(CC)cc2)c(=O)c2ccccc21,inactive: 8.61%,
CCOc1ccc(NC(=O)CC2C(=O)N(c3cccc(C)c3)C(=O)N2Cc2cccnc2)cc1 (configuration not stated),,"inconclusive: 31.6 µM [activator, single point]"
Cn1c(=O)oc2cc(S(=O)(=O)N3CCC(C(=O)Nc4ccc(OC(F)(F)F)cc4)CC3)ccc21,,"inconclusive: 2.51 µM [activator, partial curve, poor fit]"
